# Data reported in PubChem BioAssay AID2451 (National Center for Advancing Translational Sciences (NCATS), 2010).
# About 2,100 (0.72%) of roughly 290,000 compounds were called active. The inconclusive results got no clear call from the source; some entries with a clear call stand among them for comparison. Calls follow the shape of the dose curve; as a rule, active = well fitted inhibition curve with a large enough effect; inconclusive = small, poorly fitted or top-dose-only effect, or effect the other way; inactive = flat fitted curve, though single readings scatter. Where the call is inconclusive, the potency comes from a doubtful curve fit.
# Biological target: Fructose-bisphosphate aldolase (Giardia intestinalis (strain ATCC 50803 / WB clone C6)) (UniProt A8B2U2)
# Sequence of UniProt A8B2U2 (A8B2U2 whole entry, looked up): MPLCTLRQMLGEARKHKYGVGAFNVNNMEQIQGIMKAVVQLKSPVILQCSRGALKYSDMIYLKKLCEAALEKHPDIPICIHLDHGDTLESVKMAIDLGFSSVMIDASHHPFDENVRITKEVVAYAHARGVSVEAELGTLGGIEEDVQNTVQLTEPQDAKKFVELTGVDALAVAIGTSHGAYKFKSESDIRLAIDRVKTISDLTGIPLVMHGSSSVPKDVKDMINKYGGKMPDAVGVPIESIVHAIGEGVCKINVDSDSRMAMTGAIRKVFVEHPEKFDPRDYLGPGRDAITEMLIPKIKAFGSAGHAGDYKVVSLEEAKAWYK
# Experiment: qHTS Assay for Inhibitors of Fructose-1,6-bisphosphate Aldolase from Giardia Lamblia; also: nearly all actives have a fitted effect of over 55% in size
# Conditions: purified Giardia FBPA; series mostly up to 59.6 µM
# Procedure, shortened: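 Giardia FBPA (40 nM reagent) was preincubated 10 min at RT with compound (up to 57.5 uM final), then substrate plus GAPDH/TPI/NAD/arsenate coupling system with diaphorase/resazurin was added; resorufin fluorescence (525/598 nm) was read after 20 min.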
# Potency is read from the fitted curve at half-maximal effect; tags tell the direction and shape of the fitted curve.
row,Compound,Potency
1,CC(C)[C@H](NC(=O)C1CCN(C(=O)[C@@H]2CCCN2)CC1)C(=O)NCc1ccc(F)cc1,"inconclusive: 28.2 µM [inhibitor, partial curve, poor fit]"
2,CC(Nc1cc(N2CCN(S(=O)(=O)N(C)C)CC2)ccc1[N+](=O)[O-])c1ccccc1 (stereo not given),"inconclusive: 15.8 µM [inhibitor, single point]"
3,CC(C)NC(=O)c1ccc(CSCc2ccccc2Cl)o1,inactive
4,O=C(NC(=S)Nc1cccc2ncccc12)c1ccccc1,"inconclusive: 17.7 µM [inhibitor, single point]"
5,COC(=O)C(=C/C(C)=C/c1cccnc1)C(=O)OC,inactive
6,COCCN1C2=C(COC(C)(C)C2)C(=S)NC1c1ccccc1 (stereo not given),"inconclusive: 31.5 µM [inhibitor, single point]"
7,COc1ccc(OCCN2CCOCC2)cc1,"inconclusive: 14.1 µM [inhibitor, partial curve]"
8,CCOC1=C/C(=C/c2c(N)n3nc(CC(=O)N4CCCCC4)sc3nc2=O)C=CC1=O,"inconclusive: 25.1 µM [inhibitor, single point]"
9,Cc1nc2c(c(C)nn2-c2ccccc2)c(C)c1CCC(=O)Nc1ccc(CN2CCCC2)cc1,inactive
10,C/C(=N\Nc1ccc(Cl)c(C(=O)O)c1)c1ccccn1,"inconclusive: 15.8 µM [inhibitor, partial curve]"
11,CCOC(=O)C1=C(Cc2ccc(Cl)cc2)C(=O)c2ccccc2C1=O,active: 2.51 µM
12,COc1ccc(CCN(C)C(=O)C2CCCN(C3CCN(Cc4ccccc4)CC3)C2)cc1OC (stereo not given),active: 17.8 µM
13,CCCOc1ccc(/C=C/C(=O)Nc2ccc([N+](=O)[O-])cc2)cc1,inactive
14,N#CC1=C2SCN(Cc3ccco3)CN2C(=O)CC1c1c(F)cccc1Cl (stereo not given),"inconclusive: 5.61 µM [inhibitor, partial curve]"
15,C/C(Nc1ccc2oc(=O)ccc2c1)=C1/C(=O)CC2[C@@H]1C2(C)C (stereo not given in full),"inconclusive: 22.3 µM [inhibitor, single point]"
16,Cn1nc(CC(=O)Nc2cccc3ncccc23)c2ccccc2c1=O,inactive
17,C/C(CC(=O)Nc1ccccn1)=N\NC(=O)c1cnccn1,"inconclusive: 19.9 µM [inhibitor, single point]"
18,Cc1cc(NC(=O)c2cnn3cccnc23)no1,inactive
19,CCOc1c([N+](=O)[O-])cc2c(C)c(C(=O)N3CCN(C)CC3)oc2c1OCC,"inconclusive: 17.8 µM [inhibitor, partial curve]"
20,Cc1cccc(-c2nnc(SCC(=O)O)n2Cc2ccccc2)c1,active: 15.8 µM
